Laboratory results reported in the supplement of paper PMC3334620.
In all, about 33,000 sequences were measured (“E-score (-0.5 to 0.5)”: median about -0.035, highest 2% from about 0.34 on). The list shows a part of the results.

Each sequence was assayed against T1, Mot3 (UniProt P54785) (assay: PBM E-score (8-mer binding enrichment) (E-score (-0.5 to 0.5)); higher = stronger / more preferred TF binding; most listed sequences are background and not binding sites). Settings: protein concentration: 200 nM; construct: GST-full length.
T1 sequence: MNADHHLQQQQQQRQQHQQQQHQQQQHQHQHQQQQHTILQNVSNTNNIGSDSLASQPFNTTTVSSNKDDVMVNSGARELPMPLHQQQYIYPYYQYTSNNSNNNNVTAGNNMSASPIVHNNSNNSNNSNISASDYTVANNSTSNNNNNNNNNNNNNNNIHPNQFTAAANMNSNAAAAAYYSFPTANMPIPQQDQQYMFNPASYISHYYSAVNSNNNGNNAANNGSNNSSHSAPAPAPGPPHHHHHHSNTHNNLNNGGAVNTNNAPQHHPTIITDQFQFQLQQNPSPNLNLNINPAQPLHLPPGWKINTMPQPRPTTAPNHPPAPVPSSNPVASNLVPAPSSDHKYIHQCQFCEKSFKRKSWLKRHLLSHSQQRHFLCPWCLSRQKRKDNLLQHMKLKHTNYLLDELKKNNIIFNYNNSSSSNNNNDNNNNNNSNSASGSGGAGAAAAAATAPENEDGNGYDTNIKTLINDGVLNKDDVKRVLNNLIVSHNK
Procedure, shortened: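 Full-length yeast transcription factors or their DNA-binding domains, GST-tagged and expressed with PURExpress, were applied at about 100-200 nM to universal all-10-mer Agilent arrays. These arrays had been made double-stranded by primer extension on fresh or once-stripped slides. Detection used fluorescent anti-GST, normalisation used masliner, and E-scores for ungapped eight-base words pooled with reverse complements came from the Universal PBM Analysis Suite.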

Sequence	PBM E-score
GACTAAGC	-0.143
CAGCTACA	0.133
GCCTTGCC	0.416
AGGGCGTA	-0.0718
CGTGCCGA	-0.00421
ATCCTACG	-0.124
TACAAGTA	0.221
GCACCGGC	-0.0095
TAAACATA	0.284
CCGGTCGA	-0.303
AAACATAA	0.308
ATAGGGAG	-0.165
ATAATCCA	-0.00343
ATCTACAT	0.349
GGGTACGA	-0.148
ATATCCAG	-0.0458
CCCACTTC	-0.221
AATGGAGA	-0.155
AGGCAAAG	0.472
ACTAGTCT	-0.0432
ATTTGTTG	0.113
ATTCACGA	0.0642
GCCGCCGA	-0.218
GACCCTGC	-0.119
AGGGATAA	0.0972

Sequence	PBM E-score
CGGTAGGA	0.0346
CCGGGAGC	-0.282
CGCTGTGC	-0.0145
CAACATCC	0.0854
CGACAAGC	0.04
GAAGTTAA	0.184
CAAACCAC	-0.0198
ACATCAAT	0.219
AGGCTGAG	-0.0976
CCAAAGTA	-0.0981
ACAACTGC	-0.0109
AAATACAT	0.344
ATGATCTG	0.0224
AGGGACCT	-0.103
ATTTGTGA	-0.11
AAATTGAT	0.114
TCCTGCCA	0.12
GAGCTAAA	-0.205
CCTGATCG	-0.249
ACGGGTCA	-0.13
ACCTCCAA	0.0441
ATGGAAAA	-0.0018
ACATCAAC	0.163
AAACCCAG	0.0423
CCACCAAG	-0.269

Sequence	PBM E-score
GACCAAGC	-0.251
AATAACAC	0.31
ATAGCCAG	-0.221
GAAAAGGA	0.164
AACATCCA	0.089
ATCAATGC	-0.189
GGACAAAC	0.0402
ACATCAGC	0.0369
CGGACCCC	-0.0309
GACTAGAA	0.0191
ATCGGCGG	-0.342
CTTGGGTA	0.037
CAGTTGTC	-0.112
GGACTGCA	-0.204
GTATCAGA	0.0523
CTTCGAAC	0.0235
TATAGGAA	0.412
GCCACTCA	-0.285
GACTCACC	-0.38
AATCGAAC	-0.0103
GAGTGGTA	-0.171
GTCCCCAC	-0.356
ATGTCAAT	0.339
AGCCTGCG	0.115
ATCCCATC	-0.163

Sequence	PBM E-score
GTTACAAC	0.221
ATCTTCGG	-0.0679
AAACTAAT	0.0986
ATTTGGGA	-0.159
GCCTATCC	-0.0377
CCCTAGAG	-0.231
ATCAAAGA	0.0406
GATTCGGC	-0.133
TAACGACA	0.166
GTAGCTCA	-0.157
ATTGCAAT	0.0553
ATCGACAA	-0.0469
AGTACCCC	-0.124
AGGATGGA	-0.273
ATATTAGG	0.106
AGCATGTC	0.218
GGATAACA	0.218
ACGTTCAA	0.108
GGTAAAAC	0.142
ACAATCCG	-0.0793
CACGTATC	0.184
CAGGGTCA	-0.0468
ATGGAGGA	0.0248
AGGGCGCA	-0.113
CTGAGCGA	-0.127

Sequence	PBM E-score
GAGGCCTA	-0.22
AAATCCAA	-0.0552
ATAACTGG	-0.219
GAAGGAGA	0.127
CAGAGAGA	-0.238
CTAGCAAG	0.0259
GGAGAACA	-0.0362
CAAACCTG	-0.121
AAATCGCA	-0.215
AGAAATTC	-0.159
AGCTAAGG	0.0695
ACCACCAC	-0.153
CGGGGTAG	-0.248
AATTATTC	0.17
CAGTGCCG	-0.173
GCAGATTA	-0.143
CACAACGA	0.0814
CAAGGTGG	-0.0692
CGGTTTCA	-0.148
CGCTGCCC	-0.186
CCTTGTGA	0.0551
AAAAGGCC	-0.0159
AGAGAGAA	0.025
CTGATGGA	-0.229
AATCTCTG	-0.112

Sequence	PBM E-score
CCGGCTGC	-0.0585
CAATAAAA	0.0116
ACTCAGAC	0.0185
AGTACGGA	-0.135
ACAGCCCG	-0.0957
AAAACAGT	0.0461
ATAGTCTC	-0.0338
AAAGCTTT	0.0404
ACGCCTTG	-0.0342
AGTCTGAA	-0.204
ACACAGAG	0.2
CCGTTATA	0.0151
ACTGAGCC	-0.128
ATGCATTA	0.0537
GATAGCAA	0.031
AGGACAAT	-0.159
AGAGGAAA	0.0488
CTGTAGAA	0.191
CCAATTAA	0.0473
AAAAACGG	0.0004
AGTGTTAA	0.264
AACTCCGA	0.0093
ACTAACAG	0.0357
GAGTCAGA	-0.0798
AAGCACAG	0.0561

Sequence	PBM E-score
AACATTAT	0.266
CAGATGTA	-0.0233
AAATGTAT	0.188
CAAGCCGA	0.165
GGTCTTCA	-0.318
TCTAGCCA	-0.064
CCCTTCGC	-0.254
ACTCCGGG	-0.248
GGGGATAA	-0.137
AAAGCAAC	0.0484
AACAGTCG	-0.142
AGTCCACA	-0.11
AGCGCCTC	-0.33
CACTTCCA	-0.149
ACAGTATG	0.057
CATATAAC	0.136
ACCCCACT	-0.18
CGGGTTCA	-0.122
AAATATAT	0.275
AACAACCG	0.00436
ATCAACGA	0.056
CAGGACAC	0.0577
TATAATCA	0.0993
CAAGAATC	0.0746
CGCAAAAA	0.196

Sequence	PBM E-score
TGCTGACA	-0.0498
CGCTACTA	-0.00039
GCCAAGTA	-0.0832
GACAATGA	0.0225
ATCATATC	-0.0853
ATAGAGAT	0.0964
GAGTGCCA	-0.376
GCAGCCGA	-0.128
GCGCTGTA	0.029
GCACGAAA	0.0734
ATTCGTGA	0.0275
ACATTGCG	0.159
AACACCCA	0.0664
GGTCTGAA	-0.181
AGCCGATA	-0.205
ACTTACGG	-0.0618
ATGAGGCC	-0.174
GCTGTGGA	-0.152
ACAGACGG	-0.181
AAATGGCC	-0.265
CTTGACTC	-0.0373
CGGATGTA	0.0737
AGGAGGCA	0.382
GAATCGCC	-0.281
TTGGTAAA	0.141

Sequence	PBM E-score
AGGCTTCC	-0.0116
CCCGTGAA	-0.184
TGATCTAA	0.0633
GTAGAAAA	0.207
GTATCACA	0.0797
TTACAGAA	0.106
AACATCAC	0.249
GGAATCGA	-0.201
AGTCGTGG	-0.214
GAACAAAC	0.193
ATACACAC	0.326
CCGGGCCC	-0.165
AGTACCAA	0.013
AGCACGTC	-0.0314
ACGGCGGA	-0.107
CAAAGGGA	-0.00904
TGCGTTAA	0.259
CAAATTCC	-0.00736
CCATAGAA	-0.148
